Experimental data as given in paper PMC9911399.
The list shows a part of the results.

Biological target: T1, RBFOX1 RRM (Homo sapiens) (UniProt Q9NWB1)
T1 sequence: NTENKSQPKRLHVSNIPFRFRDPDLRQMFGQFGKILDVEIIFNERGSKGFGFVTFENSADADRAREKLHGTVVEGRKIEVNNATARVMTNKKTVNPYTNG
Assay: EMSA
Details: HiTS-Eq, 1 nM pool, 10 min; buffer printed only for the single-RNA assays: 10 mM Tris pH 7.5, 150 mM NaCl, 3.4 mM EDTA, 0.001% NP-40, 30 C

| Sequence | binding signal (KA relative to UGCAUGU) |
| --- | --- |
| GGGAGACCGGAAUUCAGAUUGUCCGGUCUCGUUAAAUCCCGUCGUAGCCACCA / CAATCTGAATTCCGGTCTCCC / TGGTGGCTACGACGGGATT | 0.0151 |
| GGGAGACCGGAAUUCAGAUUGUCCUCCCCCCUUAAAUCCCGUCGUAGCCACCA / CAATCTGAATTCCGGTCTCCC / TGGTGGCTACGACGGGATT | 0.00206 |
| GGGAGACCGGAAUUCAGAUUGUCCACCGGUCUUAAAUCCCGUCGUAGCCACCA / CAATCTGAATTCCGGTCTCCC / TGGTGGCTACGACGGGATT | 0.00861 |
| GGGAGACCGGAAUUCAGAUUGUCCGCCUCCCUUAAAUCCCGUCGUAGCCACCA / CAATCTGAATTCCGGTCTCCC / TGGTGGCTACGACGGGATT | 0.0274 |
| GGGAGACCGGAAUUCAGAUUGUCCCGGUCUCUUAAAUCCCGUCGUAGCCACCA / CAATCTGAATTCCGGTCTCCC / TGGTGGCTACGACGGGATT | 0.0321 |
| GGGAGACCGGAAUUCAGAUUGUCCGGUCAUCUUAAAUCCCGUCGUAGCCACCA / CAATCTGAATTCCGGTCTCCC / TGGTGGCTACGACGGGATT | 0.00192 |
| GGGAGACCGGAAUUCAGAUUGUCCGGUCUAAUUAAAUCCCGUCGUAGCCACCA / CAATCTGAATTCCGGTCTCCC / TGGTGGCTACGACGGGATT | 0.0114 |
| GGGAGACCGGAAUUCAGAUUGUCCCGUCUCCUUAAAUCCCGUCGUAGCCACCA / CAATCTGAATTCCGGTCTCCC / TGGTGGCTACGACGGGATT | 0.0179 |
| GGGAGACCGGAAUUCAGAUUGUCCGGGCUCCUUAAAUCCCGUCGUAGCCACCA / CAATCTGAATTCCGGTCTCCC / TGGTGGCTACGACGGGATT | 0.257 |
